Laboratory results as given in publication PMC4336329 (PLoS ONE, 2015).
About 2,200 (0.71%) of roughly 310,000 compounds showed an effect of 50% or more. Effects have a minus sign here. The list shows a part of the results.

target: human ether-à-go-go-related gene (hERG) potassium channel (human, UniProt Q12809); test: primary screen, population patch clamp on CHO cells stably expressing hERG
Sequence (Q12809 whole entry, looked up): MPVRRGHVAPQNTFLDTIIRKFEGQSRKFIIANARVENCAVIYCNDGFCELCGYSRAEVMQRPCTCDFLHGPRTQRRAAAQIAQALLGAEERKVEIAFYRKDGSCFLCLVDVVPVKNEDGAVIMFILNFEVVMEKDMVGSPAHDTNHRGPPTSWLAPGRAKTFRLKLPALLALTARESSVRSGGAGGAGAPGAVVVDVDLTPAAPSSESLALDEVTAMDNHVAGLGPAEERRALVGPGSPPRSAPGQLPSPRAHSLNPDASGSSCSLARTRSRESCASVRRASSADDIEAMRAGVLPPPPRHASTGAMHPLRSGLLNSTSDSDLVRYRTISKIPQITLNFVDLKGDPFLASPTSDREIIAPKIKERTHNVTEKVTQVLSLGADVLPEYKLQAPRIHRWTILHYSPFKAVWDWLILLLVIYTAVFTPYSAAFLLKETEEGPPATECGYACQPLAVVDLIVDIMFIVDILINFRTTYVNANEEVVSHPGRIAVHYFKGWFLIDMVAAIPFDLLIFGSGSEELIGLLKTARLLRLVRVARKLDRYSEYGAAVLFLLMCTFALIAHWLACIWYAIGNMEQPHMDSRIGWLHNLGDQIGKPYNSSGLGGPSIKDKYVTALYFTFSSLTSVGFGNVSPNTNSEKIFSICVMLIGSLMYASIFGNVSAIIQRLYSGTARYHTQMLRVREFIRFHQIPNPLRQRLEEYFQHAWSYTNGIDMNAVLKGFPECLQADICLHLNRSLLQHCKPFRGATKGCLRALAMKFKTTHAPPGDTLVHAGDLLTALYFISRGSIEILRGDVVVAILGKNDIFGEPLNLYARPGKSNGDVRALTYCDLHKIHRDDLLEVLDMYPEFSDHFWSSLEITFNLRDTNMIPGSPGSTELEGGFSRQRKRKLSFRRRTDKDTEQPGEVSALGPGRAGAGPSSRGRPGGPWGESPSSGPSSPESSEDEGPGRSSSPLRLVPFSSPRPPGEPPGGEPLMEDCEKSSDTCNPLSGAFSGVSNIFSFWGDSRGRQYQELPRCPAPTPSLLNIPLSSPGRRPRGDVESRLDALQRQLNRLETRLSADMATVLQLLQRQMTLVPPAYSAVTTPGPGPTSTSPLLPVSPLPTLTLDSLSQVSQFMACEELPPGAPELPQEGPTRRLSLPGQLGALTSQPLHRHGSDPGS

Row | SMILES | hERG current change (%, negative = inhibition) at 1uM [%]
1 | O=C(CN1CCN(CC(=O)Nc2ccccc2Cl)CC1)Nc1ccc2c(c1)OCCO2 | -37.3
2 | C=C(C)CSC1=C(C#N)C(c2ccccc2)CC(=O)N1 (stereo not drawn) | -3.8
3 | CCOC(=O)[C@H]1[C@H]2COc3ccc(C)cc3[C@@H]2N2C(=O)CN(Cc3ccccc3)C(=O)[C@@]12C | 9.36
4 | CCS(=O)(=O)c1ccc2c(c1)N(S(=O)(=O)c1ccc(OC)cc1)CC(C(=O)O)O2 (stereo not drawn) | 18.5
5 | O=S(=O)(NCCN1CCCC1)c1ccc(Br)cc1 | 3.89
6 | COC(=O)C1=C(c2ccc(S(C)(=O)=O)cc2)C[C@@H]2CC[C@H]1N2C(=O)NCCS(C)=O (stereo partly drawn) | 12.2
7 | O=C(NNC(=S)NC(=O)c1ccccc1)c1ccc([N+](=O)[O-])cc1 | 1.47
8 | CCN(CC)C(=O)c1cc(Cl)ccn1 | 12.2
9 | CCCCN(C)C(=O)C1CCC(CNS(=O)(=O)c2ccc3c(c2)CC(C)N3C(C)=O)CC1 (stereo not drawn) | 13.4
10 | Cc1nn(Cc2ccccc2)c(Cl)c1/C=N/NC(=O)CNc1cccc(C(F)(F)F)c1 | 13.3
11 | COc1ccccc1NS(=O)(=O)c1ccc(C)c(NC(=O)NC2CCCCC2)c1 | -1.93
12 | Cc1ccc(C(=O)NCC(=O)OCc2nnc(-c3ccc([N+](=O)[O-])cc3)o2)s1 | -21.3
13 | C=CCOc1ccc(/C=C2/C(=O)ON=C2C)cc1OCC | 19.5
14 | Cc1ccc(C(=O)N2CCN(S(=O)(=O)c3ccc(Br)cc3)CC2)o1 | 3.15
15 | Cn1c(=O)c2c(nc(N3CCCCC3)n2CCSc2nc3ccccc3s2)n(C)c1=O | 11.1
16 | O=S(=O)(NCC(c1ccco1)N1CCN(c2ccccc2F)CC1)c1ccc(F)cc1 (stereo not drawn) | 1.87
17 | O=S(=O)(Nc1ccc(N2CCCCC2)cc1)c1ccc(F)c(F)c1 | 12.5
18 | CSc1nnc(-c2ccc(F)cc2)o1 | 13
19 | COc1ccc(N2CCN(c3oc(COc4ccccc4)nc3C#N)CC2)cc1 | -9.7
20 | Clc1ccc(/C=N/Nc2nnc(Cl)c3ccccc23)cc1 | 7.81
21 | O=C(Nc1cccc(S(=O)(=O)N2CCCCCC2)c1)c1cc(=O)c2ccccc2o1 | 5.24
22 | Cc1cccc2cc(CN(Cc3nnnn3C3CCCCC3)C3CCCC3)c3nnnn3c12 | 6.72

Row | SMILES | hERG current change (%, negative = inhibition) at 1uM [%]
23 | COc1cc(-n2c(C)nc3cccnc32)c(Cl)cc1C(=O)O | 16.1
24 | CC1=NN(c2ccc(Cl)cc2)C(=O)C1C(c1ccccc1O)c1c(C)[nH]n(-c2ccc(Cl)cc2)c1=O (stereo not drawn) | 11
25 | CCCCN(CC)CCNC(=O)c1cc2c(C)nc3ccccc3c2o1 | -15
26 | O=C(O)CCCCCN=Cc1c(O)c2ccccc2oc1=O | 9.8
27 | CCC1CCCCN1c1nc2c(C=O)c(C)nn2c2ccccc12 (stereo not drawn) | 3.82
28 | Nc1nc(-c2cc(Cl)cc(Cl)c2OC(F)F)cs1 | 10.7
29 | Cc1cc(C(=O)CCC(=O)Nc2ncccc2C)c(C)s1 | 8.39
30 | Cc1ccc(C2c3[nH]c4ccccc4c3C[C@H]3C(=O)N(c4ccccc4C(=O)NCCCN4CCOCC4)C(=O)N23)cc1 (stereo partly drawn) | 2.32
31 | CCCCC1(C)NC(=O)N(CC(=O)Nc2cc(S(=O)(=O)N3CCOCC3)ccc2Cl)C1=O (stereo not drawn) | 4.4
32 | COc1ccccc1-c1nc(-c2ccccc2)[nH]c(=O)c1C#N | 6.71
33 | COc1ccc(C(=O)Nc2ccc(Cl)cn2)cc1S(=O)(=O)N1CCCC1 | -14.4
34 | Brc1cc(Br)c2nc(-c3cccs3)ccc2c1 | 8.07
35 | Cc1cc(NC(=O)c2ccccc2)n(-c2ccccc2)n1 | 12.1
36 | N#C/C(=N\Nc1cc(Cl)cc(Cl)c1)c1nnc2n1CCCCC2 | 4.31
37 | Cl.NCCCC(=O)N1c2ccccc2Sc2ccc(Cl)cc21 | 7.61
38 | CCN1CCN(C(CNS(=O)(=O)c2ccc(C)cc2)c2cccnc2)CC1 (stereo not drawn) | -9.35
39 | C[C@H](CCC(=O)O)[C@H]1CC[C@H]2[C@@H]3C(=O)C[C@@H]4CC(=O)CC[C@]4(C)[C@H]3CC(=O)[C@]12C | 14.6
40 | COc1ccc(C(C)=O)cc1CSc1nnc(Nc2ccc(C)cc2)s1 | 9.59
41 | CC(NC(=S)Nc1ccccc1)C(c1cccs1)N1CCOCC1 (stereo not drawn) | 5.09
42 | CCCCn1c(SCC(=O)N(CC)C2CCS(=O)(=O)C2)nc2cc(S(N)(=O)=O)ccc21 (stereo not drawn) | 18.1
43 | O=C(CSc1nnc(CNC(=O)c2ccccc2)o1)NCc1ccc2c(c1)OCO2 | 4.4
44 | CC1CN(c2oc(-c3ccccc3Cl)nc2C#N)CC(C)O1 (stereo not drawn) | 7.03

Row | SMILES | hERG current change (%, negative = inhibition) at 1uM [%]
45 | COc1ccccc1N1CCN(Cc2ccc(C(=O)O)cc2)CC1 | 9.12
46 | O=C1CCC([N+](=O)[O-])C(c2ccc(Cl)cc2Cl)N1 (stereo not drawn) | 4.22
47 | COc1cc(C)c(S(=O)(=O)n2ccc(C)n2)cc1C | 10.8
48 | Cc1ccc(CCNC(=O)C2CCN(S(=O)(=O)c3ccc4c(c3)CCC(=O)N4)CC2)cc1 | 5.74
49 | S=c1[nH]nc(-c2ccc(Br)cc2)n1Cc1ccccc1 | 12.8
50 | Cn1cc(CN2CCCC(C(=O)c3nccn3C)C2)c(-c2cccc(Cl)c2)n1 (stereo not drawn) | 9.44
51 | Cc1cccc(NC(=O)CC2CCC2)c1 | 1.8
52 | CC1CCCN(C(=O)c2ccc(COc3ccccc3Br)cc2)C1 (stereo not drawn) | 13.4
53 | NC(=O)C1CCN(CC(=O)c2c[nH]c3ccc(F)cc23)CC1 | 4.86
54 | COCC(C)NS(=O)(=O)c1ccc(C(=O)NCCCn2ccc3ccccc32)cc1 (stereo not drawn) | 17.9
55 | O=S1(=O)c2cccc3cccc(c23)N1Cc1nnc(-c2ccccc2Br)o1 | 1.17
56 | CC1(C)Cc2ccccc2-c2nnnn21 | 1.49
57 | Cc1ccc(CSCC(N)C(=O)O)cc1 (stereo not drawn) | 11.2
58 | C(=C\c1ccccc1)/CN1CCN(Cc2ccc3c(c2)OCO3)CC1 | 6.43
59 | CC(C)CCNCC(=O)NC(c1ccccc1)c1ccccc1.Cl | 7.38
60 | CN1C(=O)C(c2ccccc2[N+](=O)[O-])C(=O)c2ccccc21 (stereo not drawn) | 2.32
61 | O=C(CNC1CCCCC1)Nc1cccc(C(F)(F)F)c1 | 13.4
62 | CC(C)NC(=O)C(c1ccc(F)cc1)N(Cc1ccco1)C(=O)CCC(=O)Nc1ccccn1 (stereo not drawn) | 9.72
63 | CCn1c(C(=O)O)c(CC(=O)N(C)c2ccc(OC)cc2OC)c2ccccc21 | 15.6
64 | CC(C)C[C@H](NC(=O)N1CC(=O)Nc2ccccc21)C(=O)N[C@H](Cc1c[nH]c2ccccc12)C(=O)O | 10.1
65 | CC(C)c1ccc(NC(=O)C2CCCN(S(=O)(=O)c3cccnc3)C2)cc1 (stereo not drawn) | 21.1
66 | C=CCn1cnc2sc(C(=O)Nc3ccccc3OC)c(C)c2c1=O | 10.9

Row | SMILES | hERG current change (%, negative = inhibition) at 1uM [%]
67 | Cc1ccc(-c2cc(C(=O)OCC(=O)N(C)c3c(N)n(Cc4ccccc4)c(=O)[nH]c3=O)c3ccccc3n2)o1 | 18.6
68 | O=C1CSC(c2ccccc2)N1c1cccnc1 (stereo not drawn) | 8.37
69 | COc1ccc(-c2nnn(CC(=O)c3ccc4c(c3)OCCO4)n2)cc1OC | 8.73
70 | CC(NS(=O)(=O)c1ccc(Br)cc1)C(=O)NCC1CCCO1 (stereo not drawn) | 14.1
71 | O=C(COC(=O)c1ccccc1)Nc1cc(Cl)ccc1Oc1ccccc1 | -7.48
72 | CCC(C)(C)C1CCc2[nH]nc(C(=O)NCC3CC3)c2C1 (stereo not drawn) | 12.1
73 | O=C(CSc1nc2ccccc2s1)NCCCN1CCOCC1 | 13.7
74 | CC(C)(C)C(=O)Nc1cccc(C(=O)c2cccc(NC(=O)C(C)(C)C)c2)c1 | 1.15
75 | CCC(C)NC(=O)c1cccc(C)c1 (stereo not drawn) | -0.28
76 | CC(C)Sc1nnc(NC(=O)c2ccc3c(c2)OCO3)s1 | 4.35
77 | CCOC(=O)c1c(NC(=O)CSc2ncccn2)sc2c1CC(C)(C)NC2(C)C | -25.6
78 | Cc1ccc(S(=O)(=O)CC(=O)Nc2nc(-c3ccccc3)cs2)cc1 | -1.87
79 | CC(=O)Nc1c(-c2ccc(F)cc2)nc2ccccn12 | 2.43
80 | OCC[C@H]1C[C@@H](O)[C@H](O)[C@]2(Cc3ccccc3O2)O1 | 0.687
81 | Cl.Nc1nc2ccccc2n1C(=O)c1cccs1 | 17.1
82 | CCn1ncc(Cl)c1C(=O)NC(C)c1ccccc1 (stereo not drawn) | -7.45
83 | COC(=O)C/C=C/[C@@H](C)[C@@H](/C=N/OCC[C@@H]1C=C[C@H](OC(C)=O)[C@@H](COC(C)=O)O1)NS(=O)(=O)c1ccc(C)cc1 | 7.04
84 | O=C(OC1CCOC1=O)c1cc(-c2ccccc2)nc2ccccc12 (stereo not drawn) | 1.09
85 | CC(=O)NC(=S)Nc1ccc2oc(=O)ccc2c1 | 14.6
86 | CSCCC(NC(=O)COc1ccccc1)C(=O)N1CCCCCC1 (stereo not drawn) | 11.7
87 | CN1CCN(C(=O)C2CCCCC2C(=O)O)CC1 (stereo not drawn) | 6.55
